Assay results published in the supplement of paper PMC9334596.
Where “and” joins values, the source holds several entries; their conditions need not be identical. Identical values can stand only once. Whole data set: some 5,300 compounds, median “PER2::LUC luminescence relative to vehicle control” near 0.96, cut for the highest 2% near 1.3. This is one part of the list.

Tested on: mPer2Luc MEF
Test: PER2::LUC luminescence relative to vehicle control (fold of vehicle); higher = higher PER2::LUC reporter signal
Details: 10 µM
Summary of the method: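 Each value gives PER2::LUC luminescence as fold of vehicle control, measured with the ONE-Glo luciferase assay system in mouse embryonic fibroblasts carrying the mPer2Luc reporter. Cells grown in DMEM with 10% FBS at 37 °C and 5% CO2 were seeded at ~3000 per well in 384-well plates. Library compounds were added at 10 μM 48 h later, and readings were taken 24 h and 30 h after treatment.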

| Structure (SMILES) | PER2::LUC luminescence (time after treatment 24 h) | PER2::LUC luminescence (time after treatment 30 h) |
| --- | --- | --- |
| FC(F)(F)Oc1ccc(-c2ccc3nnc(C(F)(F)F)n3c2)cc1 | 1 | 0.974 |
| O=C(c1ccc(F)cc1)N1CCC[C@H](c2nc(-c3ccc(F)cc3)no2)C1 | 0.994 | 0.927 |
| C=C(C)[C@H]1COc2cc3oc(=O)ccc3cc2O1 | 1.09 | 1.13 |
| CC(C)CCC[C@@H](C)[C@H]1CC[C@H]2[C@@H]3CC[C@H]4CC(=O)CC[C@]4(C)[C@H]3CC[C@]12C | 1 | 0.915 |
| O=C1N=C(O)NC1(c1ccccc1)c1ccccc1 | 1.29 | 1.01 |
| O=C1Nc2ccc(I)cc2/C1=C/c1cc(Br)c(O)c(Br)c1 | 1.15 | 0.992 |
| CN(C)c1cc(NC(=O)CNC(C)(C)C)c(O)c2c1C[C@H]1C[C@H]3[C@H](N(C)C)C(O)=C(C(N)=O)C(=O)[C@@]3(O)C(O)=C1C2=O | 0.801 | 0.935 |
| CCNc1nc(Nc2cc(F)c(C(=O)N3CCOCC3)cc2OC)ncc1C(F)(F)F | 0.535 | 0.538 |
| CCNC(=O)[C@@H]1CCCN1C(=O)[C@H](CCCNC(=N)N)NC(=O)[C@H](CC(C)C)NC(=O)[C@@H](CC(C)C)NC(=O)[C@H](Cc1ccc(O)cc1)NC(=O)[C@H](CO)NC(=O)[C@H](Cc1c[nH]c2ccccc12)NC(=O)[C@H](Cc1c[nH]cn1)NC(=O)[C@@H]1CCC(=O)N1 | 0.987 | 0.922 |
| Nc1ncnc2c1c(-c1ccc(Oc3ccccc3)cc1)nn2[C@@H]1CCCNC1 | 0.544 | 0.62 |
| CC[N+](CC)(CC(=O)Nc1c(C)cccc1C)Cc1ccccc1 | 0.988 | 0.901 |
| COc1cc(NS(=O)(=O)c2ccc(N)cc2)nc(OC)n1 | 1.16 | 0.967 |
| CC1(C)O[C@@H]2[C@@H](CO[C@@]3(COS(N)(=O)=O)OC(C)(C)O[C@@H]23)O1 | 0.995 | 1 |
| COc1cc2ccc(=O)oc2cc1O | 1.02 | 1.04 |
| CC(C)Cn1cnc2c(N)nc3ccccc3c21 | 0.976 | 0.934 |
| COc1cc2oc3cc(OC)c(OC)c(CC=C(C)C)c3c(=O)c2c(O)c1CC=C(C)C | 0.964 | 0.905 |
| CN(C)c1ccc(-c2nc3ncc(Cl)c(N4CCN(CC(=O)Nc5nccs5)CC4)c3[nH]2)cc1 | 0.865 | 0.764 |
| CC(=O)OCC(=O)[C@@]1(O)[C@H](OC(C)=O)C[C@H]2[C@@H]3CCC4=CC(=O)C=C[C@]4(C)[C@@]3(F)[C@@H](O)C[C@@]21C | 0.822 | 1.16 |
| CON(C)C(=O)N1N=C(c2cc(F)ccc2F)S[C@@]1(CCCN)c1ccccc1 | 0.706 | 0.742 |
| COc1cc2ncnc(Nc3cccc(I)c3)c2cc1OC | 0.808 | 0.774 |
| CN[C@H](CNC(=O)N1CCC[C@@H]([C@@H](OCCNC(=O)OC)c2cccc(Cl)c2)C1)C[C@H]1CCCOC1 | 1 | 0.979 |

| Structure (SMILES) | PER2::LUC luminescence (time after treatment 24 h) | PER2::LUC luminescence (time after treatment 30 h) |
| --- | --- | --- |
| NC1=NCC2c3ccccc3Cc3ccccc3N12 (stereo not given) | 1.01 | 1.02 |
| NC(=O)N1c2ccccc2CC(=O)c2ccccc21 | 0.926 and 0.8 | 1.01 and 1.04 |
| Oc1nc(-c2ccc(C(F)(F)F)cc2)nc2c1CSCC2 | 1.18 | 1.18 |
| Cc1nc2ccc(NC(=O)Nc3ccnc4cccnc34)cc2o1 | 0.937 | 0.94 |
| CC1(C)S[C@@H]2[C@H](NC(=O)COc3ccccc3)C(=O)N2[C@H]1C(=O)O | 1.09 | 1.56 |
| CCCC(=O)O[C@]1(C(=O)CO)CC[C@H]2[C@@H]3CCC4=CC(=O)CC[C@]4(C)[C@H]3[C@@H](O)C[C@@]21C | 0.744 | 1.05 |
| CCCCC1(C2CCCC2)Cc2cc(OCC(=O)O)c(Cl)c(Cl)c2C1=O (stereo in doubt) | 1.15 | 0.876 |
| COc1ccc2c3c1O[C@H]1C[C@@H](O)C=C[C@@]31CCN(C)C2 | 0.974 and 0.913 and 0.857 | 1.05 and 0.99 and 0.959 |
| Cc1cc(F)c(Nc2ncnc3cc(OCc4ccccc4)ccc23)cc1O | 0.628 | 0.608 |
| O=C(CN1C(=O)C2(CCCC2)NC[C@H]1c1cc(F)cc(F)c1)Nc1ccc2c(c1)C[C@@]1(C2)C(=O)Nc2ncccc21 | 0.973 | 1.02 |
| O=c1[nH]c(=O)n([C@H]2C[C@H](O)[C@@H](CO)O2)cc1C(F)(F)F | 0.721 | 0.807 |
| Cn1cncc1[C@@](N)(c1ccc(Cl)cc1)c1ccc2c(c1)c(-c1cccc(Cl)c1)cc(=O)n2C | 0.442 | 0.719 |
| Cc1nnc(SCC2=C(C(=O)O)N3C(=O)[C@@H](NC(=O)Cn4cnnn4)[C@H]3SC2)s1 | 0.812 | 0.938 |
| Cc1cc(C#N)cc(C)c1Oc1nc(Nc2ccc(C#N)cc2)nc(N)c1Br | 0.733 and 0.457 | 0.829 and 0.664 |
| CN(C)CC[C@@H](c1ccc(Br)cc1)c1ccccn1 | 0.821 | 0.886 |
| c1cc(CN2CCCNCCNCCCNCC2)ccc1CN1CCCNCCNCCCNCC1 | 0.906 and 0.99 | 1.04 and 0.94 |
| O=C1OC(=O)[C@H]2[C@@H]1[C@@H]1CC[C@H]2O1 | 0.92 | 0.838 |
| O=C(NNc1ccccc1)c1ccncc1 | 1.04 and 0.927 | 1.06 and 0.975 |
| CCNC(=O)c1cc2c(-c3cc(OCCN4CCCC4)c(Cl)cc3Cl)nc(N)nc2s1 | 0.289 | 0.287 |
| CC(C)n1cnc2c(NCCc3ccc(O)cc3)nc(-c3csc4ccccc34)nc21 | 0.699 | 0.805 |
| CC(C)NC(=N)NC(=N)Nc1ccc(Cl)cc1 | 0.554 and 0.353 | – |

| Structure (SMILES) | PER2::LUC luminescence (time after treatment 24 h) | PER2::LUC luminescence (time after treatment 30 h) |
| --- | --- | --- |
| C[C@]12CCC3c4ccc(OS(=O)(=O)O)cc4CCC3C1CC[C@H]2O (stereo not given in full) | 1.08 | 0.98 |
| CCCOc1ccc(Br)cc1-c1cc(-c2ccc(Cl)cc2)[nH]c1-c1ccncc1 | 1.02 | 1.02 |
| C=C[C@@](C)(/C=C/c1ccc(O)cc1)CCC=C(C)C | 1.05 | 1.09 |
| CC(C)[C@@H]1CC[C@@H](C)CC1=O | 1 | 0.944 |
| Cc1ccccc1C(=O)Nc1ccc(C(=O)N2CCCC(N(C)C)c3ccccc32)cc1 (stereo not given) | 0.95 | 1 |
| Cc1cccc(-c2[nH]ncc2-c2ccc3ncccc3n2)n1 | 0.816 | 0.627 |
| CC1=CC2C(CC1=O)C(C)=CCC2C(C)C (stereo not given) | 0.962 | 0.981 |
| O=C(NCCCNc1nc(Nc2cccc(NC(=O)N3CCCC3)c2)ncc1I)c1cccs1 | 0.389 | 0.302 |
| N=C(CC(O)COc1ccccc1-c1ccccc1)N1CCCCC1 (stereo not given) | 0.648 | 0.844 |
| CN(Cc1ccc(C(C)(C)C)cc1)Cc1cccc2ccccc12 | 0.911 | 1.04 |
| NCCCCN | 0.884 | 0.911 |
| COc1cc2c(cc1OC)[C@@H]1C(=O)c3ccc4c(c3O[C@@H]1CO2)C=CC(C)(C)O4 | 0.176 | 0.244 |
| NCc1ccc(C(=O)O)cc1 | 1.06 | 1 |
| S=c1[nH]cnc2nc[nH]c12 | 0.814 and 0.755 | 0.655 and 0.623 |
| C=C(C)[C@@H]1CC[C@]2(C)CC[C@]3(C)[C@H](CC[C@@H]4[C@@]5(C)CC[C@H](O)C(C)(C)[C@@H]5CC[C@]43C)[C@@H]12 | 1.15 | 1.06 |
| CCCCCCCCNC(C)C(O)c1ccc(SC(C)C)cc1 (stereo not given) | 0.741 | 0.727 |
| CC(=O)CC(c1ccc([N+](=O)[O-])cc1)c1c(O)c2ccccc2oc1=O (stereo not given) | 0.967 | 0.923 |
| C[C@H]1O[C@@H](O[C@H]2[C@@H](O)C[C@H](O[C@H]3[C@@H](O)C[C@H](O[C@H]4CC[C@@]5(C)[C@H](CC[C@@H]6[C@@H]5CC[C@]5(C)[C@@H](C7=CC(=O)OC7)CC[C@]65O)C4)O[C@@H]3C)O[C@@H]2C)C[C@H](O)[C@@H]1O | 0.856 | 0.66 |
| NS(=O)(=O)c1ccc(NC(=O)Nc2ccc(F)cc2)cc1 | 0.923 | 0.905 |
| C[C@H](NC(=O)CCc1nc2ccccc2c(=O)[nH]1)c1ccccc1 | 0.998 | 0.986 |
| NCC(=O)CCC(=O)O | 0.963 and 0.878 | 1.01 and 0.932 |

| Structure (SMILES) | PER2::LUC luminescence (time after treatment 24 h) | PER2::LUC luminescence (time after treatment 30 h) |
| --- | --- | --- |
| COc1ccc(CNc2nc(N(CCO)CCO)nc3c2ncn3C(C)C)cc1 | 0.6 | 0.774 |
| NC(=O)c1ccc[n+]([C@@H]2O[C@H](COP(=O)([O-])OP(=O)(O)OC[C@H]3O[C@@H](n4cnc5c(N)ncnc54)[C@H](O)[C@@H]3O)[C@@H](O)[C@H]2O)c1 | 0.815 and 0.843 | 1.03 and 0.854 |
| CN1CCC(CNc2ccc3ncc(-c4cccc(OC(F)(F)F)c4)n3n2)CC1 | 0.259 | 0.368 |
| COc1c2ccoc2cc2oc(C)cc(=O)c12 | 0.992 | 0.989 |
| Cc1ccc(Sc2ccccc2N2CCNCC2)c(C)c1 | 0.563 and 0.516 | 0.652 and 0.612 |
| Cc1cc2c(OCC(CNC(C)(C)C)OC(=O)c3ccccc3)cccc2[nH]1 (stereo not given) | 1.06 | 0.999 |
| O=C(Nc1ccccc1)N[C@@H]1C[C@@H](C(=O)O)Nc2cc(Cl)cc(Cl)c21 | 1.06 | 0.947 |
| COc1ccc(CN(CCN(C)C)c2ncccn2)cc1 | 0.863 | 1.03 |
| N=C(N)SCCc1ccc(CCSC(=N)N)cc1 | 0.935 | 1.08 |
| COC(=O)c1c(C)c2c(c(C)c1O)OC(=O)c1c(C)c(Cl)c(O)c(Cl)c1O2 | 1.03 | 0.921 |
| O=c1[nH]c2cc(Cl)ccc2c(O)c1-c1cccc(Oc2ccccc2)c1 | 0.996 | 0.891 |
| Cc1ccc(C)c(OCCCC(C)(C)C(=O)O)c1 | 1.09 | 1.21 |
| O=C(O)C[C@H](O)C[C@H](O)/C=C/c1c(C2CC2)nc2ccccc2c1-c1ccc(F)cc1 | 0.653 and 0.335 | 0.528 and 0.411 |
| O=C(CCCN1CCC(O)(c2ccc(Cl)cc2)CC1)c1ccc(F)cc1 | 0.822 and 0.754 | 1.14 and 0.661 |
| COc1cc2c(cc1OC)[C@@H]1Cc3ccc(OC)c(OC)c3CN1CC2 | 0.985 | 1.01 |
| N[C@](CCCCB(O)O)(CCN1CCCCC1)C(=O)O | 1.07 | 1.08 |
| CC1(C)[C@@H](O)CC[C@]2(C)[C@H]3C(=O)C=C4[C@@H]5C[C@@](C)(C(=O)O)CC[C@]5(C)CC[C@@]4(C)[C@]3(C)CC[C@@H]12 | 1.22 and 0.966 | 1.5 and 0.907 |
| COC(=O)[C@@H](N)Cc1ccc(O)c(O)c1 | 0.941 | 0.816 |
| COc1ccc2c(c1)c(CC(=O)O)c(C)n2Cc1ccc(Cl)cc1 | 0.942 | 0.921 |
| C[C@]12CCC(=O)C=C1C=C[C@@H]1[C@@H]2CC[C@@]2(C)[C@H]1CC[C@@]21CCC(=O)O1 | 0.937 | 0.958 |
